“And” between values parts separate entries of the source, which are not always exact repeats. Identical values can stand only once.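 Tested at 5 concentrations; 48 h exposure; 96-well plates; endpoints linearly interpolated, else capped at highest concentration. Here, GI50 denotes the concentration required for 50% inhibition of growth. At the TGI there is no net growth.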 Square brackets hold non-standard residues; d marks the D form. Peptide text beside a SMILES is read from it. * marks the point of attachment. Chg = N[CH](C(=O)O)C1CCCCC1; Cbz = O=C(OCc1ccccc1)*; OBn = c1ccc(CO*)cc1

The subject of this experiment is NCI-H322M lung. Nature of the experiment: NCI-60 cell line screen, 48 h.
`C=C[C@]1(C)CC(O)C2C(=C)C(=O)OC2[C@H]1C(=C)C=O` (stereo partly specified): the TGI came to 29.2 µM.
Still for that read-out and setting: in the case of `CC(C)c1ccccc1NC(=O)CCC(=O)NN` it was > 100 µM; in that of `C/C=C/C1(C)/C(=N\O)C(C)(CCC)C(=O)N1O` (stereo unspecified), > 100 µM.
Regarding `COc1ccc2c3c([nH]c2c1)C(=O)c1nc(C)ccc1C3=O`, the GI50 is 2.98 µM and the TGI was > 100 µM.
Turning to `COc1nc(=O)cc(N)n1C1OC(CO)C(O)C1O` (stereo unspecified), the TGI is > 100 µM.
Same read-out and setting: in the case of `CC(C)OC(=O)c1cc(NC(=O)C(C)(C)C)c(F)cc1Cl` it was > 100 µM.
On to `CCOc1ccc(/C=C\c2cc(OC)c(OC)c(OC)c2)cc1`, for which the TGI is > 100 µM.
On the same count and under the same terms, the value for `COc1ccc(N=NC(=O)NC(CC(C)C)C(=O)NC(CC(C)C)C(=O)O)cc1` (stereo unspecified) was > 100 µM.
Take `Cn1ccnc1C(=O)/C=C/c1ccc(C(=O)Nc2ccc(F)cc2)cc1`: the GI50 is 1.22 µM and the TGI turned out to be 5.92 µM.
`Cc1cccc(C)c1NC(=O)/C=C/c1ccccc1`: the TGI is > 100 µM.
Same read-out and setting: the value for `O=S(=O)(O)c1ccc(-c2c3nc(c(-c4ccc(S(=O)(=O)O)cc4)c4ccc([nH]4)c(-c4ccc(S(=O)(=O)O)cc4)c4nc(c(-c5ccc(S(=O)(=O)O)cc5)c5ccc2[nH]5)C=C4)C=C3)cc1` was 65.1 µM.
Same read-out and setting: the value for `CC(C)=NNC1=NC(C)(C)P(=O)(NNc2ncccn2)S1` (stereo unspecified) was > 100 µM; that for `Cc1cc2nc3[nH]c4c(Cl)cc(Cl)cc4c3nc2cc1C` was > 100 µM; that for `COc1ccccc1C=NC12CC3CC(CC(C3)C1)C2` was > 100 µM.
In the case of `COc1cc(O)c2c3c(ccnc13)-c1ccccc1N2`, the GI50 was 20.6 µM and the TGI stood at 92.4 µM.
As for `O=C1C(C(Nc2ccccc2)c2ccccc2)=C([O-])c2ccccc21.O=C1C(C(Nc2ccccc2)c2ccccc2)=C([O-])c2ccccc21.[Ni+2]` (stereo unspecified), the GI50 was 5.79 µM and the TGI is > 100 µM.
`COc1ccc(-c2cc(-c3ccccc3)nc(N)c2-c2ccc3ccccc3c2)cc1` displayed a TGI of 3.78 µM.
For the compound `O=C(NCCCCN(CCCNC(=O)C(F)(F)F)Cc1ccccc1)C(F)(F)F`, the TGI was > 100 µM.
Turning to `CCOC(=O)C(C(C)=O)C1CC=CC1` (stereo unspecified), the TGI is > 100 µM.
On the same count and under the same terms, in the case of `COC(=O)c1ccc2cc(O)c(O)cc2c1` it was > 100 µM; in that of `Cc1[nH]n(-c2ncc(C#N)c(=O)[nH]2)c(=O)c1CCO`, > 100 µM.
As for `CC(=O)O[C@H]1C[C@H](O[C@H]2[C@@H](O)C[C@H](O[C@H]3[C@@H](O)C[C@H](O[C@H]4CC[C@@]5(C)C(CCC6C5C[C@@H](O)[C@]5(C)[C@@H](C7=CC(=O)OC7)CC[C@]65O)C4)O[C@@H]3C)O[C@@H]2C)O[C@H](C)[C@H]1O[C@@H]1O[C@H](CO)[C@@H](O)[C@H](O)[C@H]1O` (stereo partly specified), the GI50 is 0.0333 µM and 0.104 µM; the TGI was 0.171 µM and 0.405 µM.
For the compound `NC(N)=N/N=C(/CCN1CCCC1)CC(c1ccccc1)c1c(O)c2ccccc2oc1=O` (stereo unspecified), the TGI was > 100 µM.
As to `CCc1n[nH]c(=S)n1/N=C/c1ccc(-c2ccc([N+](=O)[O-])cc2)o1`, the TGI was > 100 µM.
The same measure, in the same setting: the value for `CN1CCCN(C)CCCN(C)CCCN(C)CCC1` was > 100 µM; that for `COc1cc([C@@H]2c3cc4c(cc3[C@@H](NC(=O)c3cccc(C#N)c3)C3COC(=O)[C@@H]32)OCO4)cc(OC)c1O` (stereo partly specified) was > 100 µM; that for `COC(=O)C1=C(C(=O)OC)C2(C)OC1C(=O)C21CC1` (stereo unspecified) was > 100 µM.
Regarding `Fc1cc(-c2csc3n[nH]c(=S)n23)c(Cl)cc1Cl`, the GI50 was 48.2 µM and the TGI is > 100 µM.
On to `NC12CC3C4CC5(N)CC3C(C1)C(C5)C4C2`, for which the TGI is > 100 µM.
Take `COc1cc(Cl)cc(-c2nn(-c3cccc(NC(=O)c4cccc(C(F)(F)F)c4)c3)cc2-c2ccncc2)c1`: the GI50 is > 100 µM and the TGI is > 100 µM.
Take `Cc1n[nH]c(=O)n1/N=C/c1cccc(Cl)c1`: the TGI is > 100 µM.
Still for that read-out and setting: the value for `C[C@]12OC(=O)[C@]3(O)CC[C@H]4[C@@H](C[C@@H](O)[C@@]5(Cl)CC=CC(=O)[C@]45C)[C@]45OCC6C(=O)O[C@@H]1C[C@@]6(C)[C@H](C4=O)[C@@]32O5` (stereo partly specified) was 15.7 µM.
Take `NC(N)=NCCCC(NC(=O)OCCCCCn1ccc(N)nc1=O)C(=O)O` (stereo unspecified): the TGI was > 100 µM.
Still for that read-out and setting: in the case of `CCCC(=O)OCC(COC(=O)CCC)OC(=O)CCC` it was > 100 µM; in that of `C#CCC(O)c1ccccc1C(O)CC#C` (stereo unspecified), > 100 µM; in that of `O=C(Cn1nnc(-c2ccccc2)n1)N/N=C/c1cn(Cc2ccc(Cl)cc2Cl)c2ccccc12`, > 100 µM.
In the case of `CCOC(=O)C(=Cc1ccc(-c2ccccc2)cc1)C(=O)OCC`, the GI50 was 3.07 µM and the TGI was determined as 11.4 µM.
The corresponding values for `CCn1cc(C2NC(=O)c3ccccc3N2)c2cccc(C)c21` (stereo unspecified) are 0.6 µM and 54.1 µM.
`Oc1ccc(-c2nc3ccc(F)cc3s2)cc1` yielded a TGI of 45.6 µM.
For the compound `O=C(O)c1ccc2nc(-c3ccc(OCCCCCOc4ccc(-c5nc6ccc(C(=O)O)cc6[nH]5)cc4)cc3)[nH]c2c1`, the GI50 was > 100 µM and the TGI was > 100 µM.
With `O=C(O)C1Cc2c([nH]c3ccccc23)C(CCCCO)N1` (stereo unspecified), the TGI is > 100 µM.
Same read-out and setting: the value for `CC1(C)CCCC2(C)[C@@H]1CC[C@@]13CC(=O)[C@@](C)(CC[C@@H]21)C3` (stereo partly specified) was > 100 µM; that for `Cc1ccc(NN=NCCCCN=NNc2ccc(C)cc2)cc1` was > 100 µM.
As for `CCCCC(CCCC)=NNC(=S)SC`, the TGI was 85 µM.
Take `C=C1C(=O)O[C@H]2[C@H]1CC/C(COC(=O)NCc1ccc(Cn3c(=O)sn(CCCC)c3=O)cc1)=C\CC[C@@]1(C)O[C@@H]21`: the GI50 was 11.6 µM and the TGI is 23.7 µM.
Consider `CC(=O)O[C@@H]1C(C2CCCCC2)C=[N+]([O-])O[C@@H]1OC1CCCC1(c1ccccc1)c1ccccc1` (stereo partly specified), for which the TGI came out at 31.5 µM.
Still for that read-out and setting: in the case of `O=C1CC(Cl)c2c1csc2Br` (stereo unspecified) it was 36.5 µM; in that of `CN(C)C(=O)Oc1ccc[n+](C)c1`, > 100 µM.
Same read-out and setting: the value for `CC1OC(OC2C(O)COC(OC3C(C)OC(OC4C(OC(=O)[C@]56CCC(C)(C)C[C@@H]5C5=CCC7[C@@]8(C)C[C@H](O)[C@H](OC9OC(CO)C(O)C(O)C9O)[C@@](C)(CO)[C@@H]8CC[C@@]7(C)[C@]5(C)CC6)OCC(O)C4O)C(O)C3OC3OCC(O)C(O)C3O)C2O)C(O)C(O)C1O` (stereo partly specified) was 30 µM.
For the compound `O=S(=O)(Nc1cccc(Cl)c1)c1ccc(-c2cnc(C3CC3)o2)cc1`, the GI50 is 7.24 µM and the TGI amounted to 31.5 µM.
Take `O=C1C2=Cc3ccccc3OC2(O)Oc2cc(O)cc(O)c21` (stereo unspecified): the TGI was > 100 µM.
On to `COc1ccc(-c2ncnc(-c3ccc(OC)c(OC)c3)n2)cc1OC`, for which the TGI is > 100 µM.
As to `CSc1ccc(NC(=O)C2CCCCC2C(=O)O)cc1` (stereo unspecified), the TGI was > 100 µM.
Turning to `S=C(NCCc1ccccn1)c1nc[nH]c1C(=S)NCCc1ccccn1`, the TGI was > 100 µM.
Consider `COC(=O)C12C3C4C1C1C2C3C41C(=O)NC(C)(C)CC(=O)O` (stereo unspecified), for which the TGI is > 100 µM.
On the same count and under the same terms, the value for `Cc1ccc(NC(=O)CC(=O)n2nc(-c3ccccc3)c(N=Nc3ccccc3[N+](=O)[O-])c2-c2ccccc2)cc1` was > 100 µM.
Same read-out and setting: the value for `CC1=NOC(C)(O)/C1=N/O` (stereo unspecified) was > 100 µM; that for `CN(c1nc(=[N+](C)C)ss1)C1CCCCC1` was > 100 µM.
Same read-out and setting: the value for `CCOP(=O)(OCC)/C(=C\n1c(=S)[nH]c2cc(C)ccc21)C(=O)OC` was > 100 µM; that for `COCOCCCCCO[Si](C)(C)C(C)(C)C` was > 100 µM.
Regarding `O=C1c2ccccc2C(=O)c2[nH]c(Cc3ccccc3F)nc21`, the TGI was > 100 µM.
The same measure, in the same setting: the value for `CC(=O)Oc1c(C)cc2c(c1C)C(C)CN2C(C)=O` (stereo unspecified) was > 100 µM; that for `CN(C)CCN(C)CCC(=O)/C=C/c1ccccc1` was > 100 µM.
As for `CN(C)c1ccc2nc3ccc(=[N+](C)C)c([N+](=O)[O-])c-3sc2c1`, the GI50 is 4.82 µM and the TGI amounted to 22 µM.
For the compound `Cn1c(CCC2(C)Cc3ccccc3C(=O)O2)cc2ccccc2c1=O` (stereo unspecified), the TGI was > 100 µM.
Still for that read-out and setting: in the case of `CCOC(=O)/C=C(\C)Sc1cc(O)c2ccccc2c1O` it was 43.8 µM.
For `O=C1Nc2ccccc2/C1=C/C(=N/c1nnc(-c2ccc(Cl)cc2)s1)c1ccccc1`, the GI50 was 12.3 µM and the TGI is 26.5 µM.
Regarding `CC(CCc1ccccc1)NCC(O)n1c(/N=N/N(C)C)nc2c1c(=O)n(C)c(=O)n2C` (stereo unspecified), the TGI was > 100 µM.
Same read-out and setting: in the case of `O=c1cccccc1NCCCCCCCCNc1cccccc1=O` it was > 100 µM.
Regarding `Cc1ccc(C2CC(c3cccc(Nc4ccncc4)c3)=NN2c2cc(Cl)cc(Cl)c2)cc1` (stereo unspecified), the GI50 is 1.58 µM and the TGI was 2.97 µM.
Regarding `CCN(CC)c1ccc(/C=C/C2=NN(c3cccc(S(=O)(=O)O)c3)C3(C2)SCC(=O)N3c2nc3ccccc3s2)cc1` (stereo unspecified), the TGI was > 100 µM.
With `COC(=O)C(NC(=O)C(CC(=O)OCc1ccccc1)NC(=O)OCc1ccccc1)C1CCCCC1` (stereo unspecified) (Cbz-Asp(OBn)-[Chg]-OMe; configuration not given here), the TGI is > 100 µM.
As for `CN(C)C=Nc1ccc2c3c(cccc13)-c1ccccc1-2`, the TGI came to 28.1 µM.
Still for that read-out and setting: in the case of `O=C(Nc1nc(=S)[nH][nH]1)C(=O)C1C(=O)Nc2ccccc2S1=O` (stereo unspecified) it was > 100 µM; in that of `COC(=O)C1C(O)C(C)C(O)C(C)(O)C=C(C)C2=C3C(=C(C)C(=O)c4c(O)c(c(C)c(OC(C)=O)c43)NC(=O)C(C)=C/C=C\C(C)(O)C(O)C(C)C1O)OCO2` (stereo unspecified), > 100 µM; in that of `c1ccc2[nH]c(C3CCCCO3)nc2c1` (stereo unspecified), > 100 µM.
`COc1ccccc1NC(=O)c1ccc(NC2=C(Cl)C(=O)N(Cc3ccccc3)C2=O)cc1`: the GI50 was 21.5 µM and the TGI was 63.5 µM.
In the same order, the values of `Cc1cc(Cl)ccc1Nc1nc(C(F)(F)F)ccc1C(=O)N/N=C/c1cccc(O)c1` are 0.923 µM and 7.15 µM.
For the compound `CCc1nc(N)c2nc(-c3ccc(C#N)cc3)oc2n1`, the TGI is > 100 µM.
Consider `C[C@]12CC[C@H](OC3CCCCO3)CC1=CC[C@@H]1C2CC[C@]2(C)/C(=N/OCCC#N)CCC12` (stereo partly specified), for which the TGI is > 100 µM.
Same read-out and setting: in the case of `COc1cc2c(cc1O)[C@@]1(Cc3ccc(OC)c(OC)c3)CCC(=O)N1CC2` it was > 100 µM.
For the compound `COc1ccc(-c2nc(S(=O)(=O)c3ccccc3)c(S(=O)CC(=O)N3CCC(C)CC3)o2)cc1` (stereo unspecified), the GI50 is 8.14 µM and the TGI amounted to 20.8 µM.
Turning to `C=CCN(c1cc(OCc2ccccc2)c2c(c(C)cn2S(=O)(=O)c2ccc([N+](=O)[O-])cc2)c1[N+](=O)[O-])S(C)(=O)=O`, the TGI is > 100 µM.

The values are drawn from PubChem BioAssay (NCI).
